Data taken from PubChem BioAssay AID686971 (National Center for Advancing Translational Sciences (NCATS), 2013).
About 7,500 (2.1%) of roughly 360,000 compounds were called active. This list was built around the results that the source calls inconclusive (neither active nor inactive); the mix of calls is not that of the screen. The call rests on the fitted dose curve; in most records, active means well fitted cell-killing curve with a large enough effect; inconclusive means small, poorly fitted or top-dose-only effect, or effect the other way, or another doubt; inactive means no such curve, though single readings can be large or run the other way. No potency is given beside an inconclusive call; the fits are too rough.

Test: qHTS for induction of synthetic lethality in tumor cells producing 2HG: qHTS for the HT-1080-IDH1KD cell line;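 on activity, negative = toxicity: 0% = DMSO wells and -100% = cell-free medium wells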
Settings: HT-1080 IDH1 knockdown viability, ATP luminescence, 48 h; activity, negative = toxicity: at 46.1 µM (top of the series) unless noted
Outline: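 After a 2 h attachment period, IDH1KD HT-1080 cells took pin-transferred compound for 48 h at 37 °C; ATP-based luminescence after 10 min room-temperature reagent incubation reported viability.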
Potency means the concentration at half of the fitted maximal effect; tags describe the fitted curve by direction and shape.

| SMILES | Potency | activity, negative = toxicity |
| --- | --- | --- |
| CC(=O)NC(CCc1ccc(Cl)c(Cl)c1)c1cccc(O)c(=O)c1 (stereo not drawn) | inconclusive [cytotoxic, single point] | – |
| COc1cnc(SC)nc1Nc1ccc(C#N)cc1 | – | inactive: 1.06% |
| CN(C)c1ccc(N=Cc2ccco2)cc1 | inconclusive [cytotoxic, partial curve] | – |
| O=C(Nc1ccc(F)cc1)C(c1cc2ccccc2o1)N1CCN(c2ccncc2)CC1 (stereo not drawn) | inconclusive [cytotoxic, single point] | – |
| COCCNC(=O)C1CCCN(Cc2ccccc2)CC1 (stereo not drawn) | inconclusive [rising, partial curve] | – |
| Cc1ccccc1-c1n[nH]c(=S)n1/N=C/c1c(C)nn(-c2ccccc2)c1C | inconclusive [cytotoxic, partial curve] | – |
| Cc1ccsc1/C=N/Nc1nc(=O)[nH]nc1C | active: 20.6 µM | – |
| Cn1c(=O)c2c(nc(NN=C3CCCCC3)n2C)n(C)c1=O | – | inactive: -0.338% |
| O=C(Cc1ccccc1)NCCn1ccc2ccccc21 | – | inactive: -1.79% |
| Cc1ccc(NCc2nnc(SCC(=O)N(Cc3ccccc3)C(C)(C)C)o2)c(C)c1 | inconclusive [cytotoxic, single point] | – |
| CCN(CC)CCN(C(=O)c1cc2c(ccc3ccccc32)oc1=O)c1nc2cc3c(cc2s1)OCCO3 | inconclusive [cytotoxic, single point] | – |
| OC(c1cc(C(F)(F)F)nc2c(Cl)cc(Cl)cc12)C1CCCCN1 (stereo not drawn) | inconclusive [cytotoxic, single point] | – |
| COc1cc2nc(N3CCN(C)CC3)nc(NC3CCN(Cc4ccccc4)CC3)c2cc1OC | active: 11.2 µM | – |
| COc1cc(C2CC(=O)N(c3ccc(C)cc3)C(=O)C2)cc(OC)c1OC | inconclusive [cytotoxic, full curve, poor fit] | – |
| O=C(NCc1ccccc1F)C1CCCN(S(=O)(=O)c2ccc(-n3cnnn3)cc2)C1 (stereo not drawn) | inconclusive [cytotoxic, single point] | – |
| CCOc1ccc(-c2cc(C(=O)Nc3ccc(F)cc3)[nH]n2)c(C)c1 | – | inactive: 20.6% |
| CCNC(=S)NNC(=O)c1cc(-c2cccc(C)c2)nc2ccccc12 | active: 6.31 µM | – |
| CCOC(=O)CSc1nc2ccc(NC(C)=O)cc2s1 | – | inactive: 15.5% |
| Cc1[nH]n(-c2ccccc2)c(=O)c1/C=N/NC(=O)c1ccoc1C | inconclusive [cytotoxic, partial curve] | – |
| CCc1ccc(C(=O)NC(=S)Nc2ccc3c(c2)OCCO3)cc1 | – | inactive: -4.04% |
| C=CCn1cc(CN2CCC(C(=O)Nc3ccc(Oc4cccnc4)cc3)CC2)c(C)n1 | – | inactive: 5.52% |
| O=C(C1=C[C@@H](C2CCCCC2)C[C@@H](OCc2ccc(CO)cc2)O1)N1CCOCC1 | – | inactive: -2.9% |
| COc1ccc(OCC(O)COc2ccc(OC)cc2)cc1 | – | inactive: 0.331% |
| O=C1/C(=C\c2ccccc2)CN(C(=O)CCN2CCCCC2)C/C1=C/c1ccccc1 | active: 2.91 µM | – |

| SMILES | Potency | activity, negative = toxicity |
| --- | --- | --- |
| COc1cc(SC)ccc1C(=O)Nc1ccccc1 | inconclusive [cytotoxic, single point] | – |
| Cc1ccccc1-n1c(C)cc(/C=N/Nc2ccc([N+](=O)[O-])cn2)c1C | inconclusive [cytotoxic, single point] | – |
| Cc1ccc(S(=O)(=O)N2CC3C(=O)C[C@@H](c4ccccc4Cl)N(S(=O)(=O)c4ccc(C)cc4)C3CC2c2ccccc2)cc1 (stereo partly drawn) | – | inactive: 6.47% |
| O=C(COC(=O)C1CC1)Nc1c(Cl)cccc1C(F)(F)F | – | inactive: 14.3% |
| O=[N+]([O-])c1cccc(S(=O)(=O)[N-]c2nc3ccccc3nc2-n2cc[n+](Cc3ccccc3)c2)c1 | inconclusive [cytotoxic, full curve, poor fit] | – |
| Cc1cc(C)nc(NC(N)=NCCc2ccccc2)n1 | active: 23.1 µM | – |
| CCOC(=O)N1C/C(=C\c2ccccc2)C(=O)/C(=C/c2ccccc2)C1 | inconclusive [cytotoxic, single point] | – |
| O=C1CSC(=S)N1/N=C/c1cc(Br)c(O)c(Br)c1 | inconclusive [cytotoxic, single point] | – |
| O=Cc1cc2ccccc2nc1SCCCF | active: 7.31 µM | – |
| CC(=O)c1c(C)[nH]c(C(=O)OCC(=O)Nc2sc3c(c2C#N)CCC(C)C3)c1C (stereo not drawn) | active: 25.9 µM | – |
| O=C(NCc1ccccc1Cl)[C@H]1CCCN1C(=O)[C@H]1CCCN1C(=O)c1ccc(Cl)cc1 | – | inactive: 1.85% |
| O=C(CSCc1cccc(Cl)c1)N1CCN(Cc2ccc3c(c2)OCO3)CC1 | – | inactive: -7.88% |
| CN1CCN(S(=O)(=O)c2cccc(C(=O)NCCC3=CCCCC3)c2)CC1 | – | inactive: -0.508% |
| C=CCN1CCN(C(c2ccccc2)c2nnnn2CCC(C)C)CC1 (stereo not drawn) | inconclusive [cytotoxic, single point] | – |
| Cc1ccc(C(=O)/C=C/c2c[nH]c3ccccc23)cc1 | inconclusive [cytotoxic, single point] | – |
| Cc1nn(Cc2c(Cl)cccc2Cl)c(C)c1NC(=O)c1cn(-c2ccccc2)nc1-c1ccccc1 | active: 4.11 µM | – |
| COc1ccccc1C(=O)NC(C)c1cccc2ccccc12 (stereo not drawn) | inconclusive [cytotoxic, partial curve] | – |
| COc1ccc(-c2nnc(NC(=O)c3ccc(F)cc3)o2)cc1 | inconclusive [cytotoxic, partial curve] | – |
| c1ccc(C2=NNC(c3ccco3)=Nc3ccccc32)cc1 | – | inactive: 1.96% |
| COc1cc2c(cc1OC)CN(C1CC(=O)N(c3c(C)cccc3C)C1=O)CC2 (stereo not drawn) | inconclusive [cytotoxic, single point] | – |
| Cc1nc(N)nc(N)c1/C=C/C(C)(C)c1ccc(Cl)cc1 | active: 0.0082 µM | – |
| O=C(c1ccc(C23CC4CC(CC(C4)C2)C3)o1)N1CCOCC1 | inconclusive [cytotoxic, single point] | – |
| CCC1CCCCN1S(=O)(=O)c1ccc(S(=O)(=O)N2CCN(S(=O)(=O)CC)CC2)cc1 (stereo not drawn) | inconclusive [cytotoxic, single point] | – |
| Cc1[nH]nc2c1C(c1cccs1)C1=C(CCCC1=O)N2 (stereo not drawn) | – | inactive: 1.15% |
